# Assay results: the supplement of paper PMC8728848
# The list shows a part of the results.
# B1: LTL (Lotus tetragonolobus), P19664 (protein)
# chain: VSFNYTEFKDDGSLILQGDAKIWTDGRLAMPTDPLVNNPKTTRSAGRALYATPVPIWDSATGNVASFVTSFNFLFVIRELKYTPTDGLVFFLAPVGTEIPSGSTGGFLGIFDGSNGFNQFVAVEFDSYHNIWDPKSLRSSHVGIDVNSIMSLKAVNWNRVSGSLEKATIIYDSQTNILSVVMTSQNGQITTIYGTIDLKTVLPEKVSVGFSATTGNPEREKHDIYSWSFTSTLKEPEEQA
# What was measured:
# Assay in all cases: glycan array binding signal (z-score within array); higher = stronger binding
# Details in all cases: glycan notation: IUPAC condensed, linker removed
# [1] = biological target: Fuc(a1-2)[Gal(a1-3)]Gal(b1-4)GlcNAc(b1-3)GalNAc
# Summary of the method: (§1)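 Columns mapping to the same glycan were averaged after glycan names were converted to IUPAC-condensed notation. The data come from 3228 arrays in the Consortium for Functional Glycomics database, limited to those with an available protein sequence. Binding is reported as a within-array Z-score averaged across arrays of one protein sequence and across linkers.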
# [2] = biological target: Fuc(a1-2)[Gal(a1-3)]Gal(b1-4)GlcNAc(b1-6)GalNAc
# Summary of the method: as §1
# [3] = biological target: Fuc(a1-2)[Gal(a1-3)]Gal(b1-4)[Fuc(a1-3)]Glc
# Summary of the method: as §1
# [4] = biological target: Fuc(a1-2)[Gal(a1-3)]Gal(b1-4)[Fuc(a1-3)]GlcNAc
# Summary of the method: as §1
# [5] = biological target: Fuc(a1-2)[Gal(a1-3)]Gal(b1-4)[Fuc(a1-3)]GlcNAc(b1-3)GalNAc
# Summary of the method: as §1
# [6] = biological target: Fuc(a1-2)[Gal(a1-4)]Gal(b1-4)GalNAc
# Summary of the method: as §1
# [7] = biological target: Fuc(a1-2)[Gal(a1-4)]Gal(b1-4)GlcNAc
# Summary of the method: as §1
# [8] = biological target: Fuc(a1-2)[GalNAc(a1-3)]Gal
# Summary of the method: as §1
# [9] = biological target: Fuc(a1-2)[GalNAc(a1-3)]Gal(b1-3)GalNAc(a1-3)[Fuc(a1-2)]Gal(b1-4)GlcNAc
# Summary of the method: as §1
# [10] = biological target: Fuc(a1-2)[GalNAc(a1-3)]Gal(b1-3)GalNAc(b1-3)Gal(a1-4)Gal(b1-4)Glc
# Summary of the method: as §1
# [11] = biological target: Fuc(a1-2)[GalNAc(a1-3)]Gal(b1-3)GlcNAc
# Summary of the method: as §1
# [12] = biological target: Fuc(a1-2)[GalNAc(a1-3)]Gal(b1-3)GlcNAc(b1-2)Man(a1-3)[Fuc(a1-2)[GalNAc(a1-3)]Gal(b1-3)GlcNAc(b1-2)Man(a1-6)]Man(b1-4)GlcNAc(b1-4)GlcNAc
# Summary of the method: as §1
# [13] = biological target: Fuc(a1-2)[GalNAc(a1-3)]Gal(b1-3)GlcNAc(b1-2)Man(a1-3)[Fuc(a1-2)[GalNAc(a1-3)]Gal(b1-3)GlcNAc(b1-2)Man(a1-6)]Man(b1-4)GlcNAc(b1-4)[Fuc(a1-6)]GlcNAc
# Summary of the method: as §1
# [14] = biological target: Fuc(a1-2)[GalNAc(a1-3)]Gal(b1-3)GlcNAc(b1-3)GalNAc
# Summary of the method: as §1
# [15] = biological target: Fuc(a1-2)[GalNAc(a1-3)]Gal(b1-3)GlcNAc(b1-6)GalNAc
# Summary of the method: as §1
# [16] = biological target: Fuc(a1-2)[GalNAc(a1-3)]Gal(b1-4)Glc
# Summary of the method: as §1
# [17] = biological target: Fuc(a1-2)[GalNAc(a1-3)]Gal(b1-4)GlcNAc
# Summary of the method: as §1
# [18] = biological target: Fuc(a1-2)[GalNAc(a1-3)]Gal(b1-4)GlcNAc(b1-2)Man
# Summary of the method: as §1
# [19] = biological target: Fuc(a1-2)[GalNAc(a1-3)]Gal(b1-4)GlcNAc(b1-2)Man(a1-3)[Fuc(a1-2)[GalNAc(a1-3)]Gal(b1-4)GlcNAc(b1-2)Man(a1-6)]Man(b1-4)GlcNAc(b1-4)GlcNAc
# Summary of the method: as §1
# [20] = biological target: Fuc(a1-2)[GalNAc(a1-3)]Gal(b1-4)GlcNAc(b1-2)Man(a1-3)[Fuc(a1-2)[GalNAc(a1-3)]Gal(b1-4)GlcNAc(b1-2)Man(a1-6)]Man(b1-4)GlcNAc(b1-4)[Fuc(a1-6)]GlcNAc
# Summary of the method: as §1
# [21] = biological target: Fuc(a1-2)[GalNAc(a1-3)]Gal(b1-4)GlcNAc(b1-3)Gal(b1-4)GlcNAc
# Summary of the method: as §1
# [22] = biological target: Fuc(a1-2)[GalNAc(a1-3)]Gal(b1-4)GlcNAc(b1-3)Gal(b1-4)GlcNAc(b1-3)Gal(b1-4)GlcNAc
# Summary of the method: as §1
# [23] = biological target: Fuc(a1-2)[GalNAc(a1-3)]Gal(b1-4)GlcNAc(b1-3)GalNAc
# Summary of the method: as §1
# [24] = biological target: Fuc(a1-2)[GalNAc(a1-3)]Gal(b1-4)GlcNAc(b1-3)[Fuc(a1-2)[GalNAc(a1-3)]Gal(b1-4)GlcNAc(b1-6)]GalNAc
# Summary of the method: as §1
# [25] = biological target: Fuc(a1-2)[GalNAc(a1-3)]Gal(b1-4)GlcNAc(b1-6)GalNAc
# Summary of the method: as §1
# [26] = biological target: Fuc(a1-2)[GalNAc(a1-3)]Gal(b1-4)[Fuc(a1-3)]GlcNAc
# Summary of the method: as §1
# [27] = biological target: Fuc(a1-2)[GalNAc(a1-3)]Gal(b1-4)[Fuc(a1-3)]GlcNAc(b1-3)GalNAc
# Summary of the method: as §1
# [28] = biological target: Fuc(a1-2)[GalNAc(a1-4)]Gal(b1-4)GlcNAc
# Summary of the method: as §1
# [29] = biological target: Fuc(a1-2)[GalNAc(b1-3)]Gal
# Summary of the method: as §1
# Fuc(a1-3)GlcNAc = biological target: Fuc(a1-3)GlcNAc
# Summary of the method: as §1
# [30] = biological target: Fuc(a1-3)[Gal(b1-4)]Glc6S
# Summary of the method: as §1
# [31] = biological target: Fuc(a1-3)[Gal(b1-4)]GlcNAc
# Summary of the method: as §1
# [32] = biological target: Fuc(a1-3)[Gal(b1-4)]GlcNAc(b1-2)Man
# Summary of the method: as §1
# [33] = biological target: Fuc(a1-3)[Gal(b1-4)]GlcNAc(b1-2)Man(a1-3)[Fuc(a1-3)[Gal(b1-4)]GlcNAc(b1-2)Man(a1-6)]Man(b1-4)GlcNAc(b1-4)GlcNAc
# Summary of the method: as §1
# [34] = biological target: Fuc(a1-3)[Gal(b1-4)]GlcNAc(b1-2)Man(a1-3)[Fuc(a1-3)[Gal(b1-4)]GlcNAc(b1-2)Man(a1-6)]Man(b1-4)GlcNAc(b1-4)[Fuc(a1-6)]GlcNAc
# Summary of the method: as §1
# [35] = biological target: Fuc(a1-3)[Gal(b1-4)]GlcNAc(b1-3)Gal(b1-3)[Fuc(a1-4)]GlcNAc
# Summary of the method: as §1
# [36] = biological target: Fuc(a1-3)[Gal(b1-4)]GlcNAc(b1-3)Gal(b1-4)[Fuc(a1-3)]GlcNAc
# Summary of the method: as §1
# [37] = biological target: Fuc(a1-3)[Gal(b1-4)]GlcNAc(b1-3)Gal(b1-4)[Fuc(a1-3)]GlcNAc(b1-3)Gal(b1-4)[Fuc(a1-3)]GlcNAc
# Summary of the method: as §1
binder,measurement,setting,value
B1,glycan array binding signal (z-score),[1],0.053
same,glycan array binding signal (z-score),[2],-0.201
same,glycan array binding signal (z-score),[3],-0.357
same,glycan array binding signal (z-score),[4],-0.074
same,glycan array binding signal (z-score),[5],0.447
same,glycan array binding signal (z-score),[6],0.201
same,glycan array binding signal (z-score),[7],0.558
same,glycan array binding signal (z-score),[8],-0.25
same,glycan array binding signal (z-score),[9],-0.106
same,glycan array binding signal (z-score),[10],-0.302
same,glycan array binding signal (z-score),[11],-0.35
same,glycan array binding signal (z-score),[12],-0.222
same,glycan array binding signal (z-score),[13],-0.187
same,glycan array binding signal (z-score),[14],-0.092
same,glycan array binding signal (z-score),[15],-0.217
same,glycan array binding signal (z-score),[16],-0.237
same,glycan array binding signal (z-score),[17],-0.233
same,glycan array binding signal (z-score),[18],-0.189
same,glycan array binding signal (z-score),[19],-0.276
same,glycan array binding signal (z-score),[20],0.111
same,glycan array binding signal (z-score),[21],-0.032
same,glycan array binding signal (z-score),[22],0.628
same,glycan array binding signal (z-score),[23],-0.219
same,glycan array binding signal (z-score),[24],-0.325
same,glycan array binding signal (z-score),[25],-0.382
same,glycan array binding signal (z-score),[26],0.026
same,glycan array binding signal (z-score),[27],1.61
same,glycan array binding signal (z-score),[28],0.139
same,glycan array binding signal (z-score),[29],-0.15
same,glycan array binding signal (z-score),Fuc(a1-3)GlcNAc,0.747
same,glycan array binding signal (z-score),[30],0.071
same,glycan array binding signal (z-score),[31],0.51
same,glycan array binding signal (z-score),[32],-0.252
same,glycan array binding signal (z-score),[33],0.31
same,glycan array binding signal (z-score),[34],0.301
same,glycan array binding signal (z-score),[35],0.767
same,glycan array binding signal (z-score),[36],1.54
same,glycan array binding signal (z-score),[37],8.86
